# Assay results as given in the supplement of paper PMC8728848.
# The other results are listed elsewhere or left out.
# B1: Surfactant Protein D (Human); Neck + Carbohydrate Recognition Domain (NCRD) (Homo sapiens) (protein)
# chain: MLLFLLSALVLLTQPLGYLEAEMKTYSHRTMPSACTLVMCSSVESGLPGRDRDGREGPRGEKGDPGLPGAAGQAGMPGQAGPVGPKGDNGSVGEPGPKGDTGPSGPPGPPGVPGPAGREGALGKQGNIGPQGKPGPKGEAGPKGEVGAPGMQGSAGARGLAGPKGERGVPGERGVPGNTGAAGSAGAMGPQGSPGARGPPGLKGDKGIPGDKGAKGESGLPDVASLRQQVEALQGQVQHLQAAFSQYKKVELFPNGQSVGEKIFKTAQFVKPFTEAQLLCTQAGGQLASPRSAAENAALQQLVVAKNEAAFLSMTDSKTEGKFTYPTGESLVYSNWAPGEPNDDGGSEDCVEIFTNGKWNDAACGEKRLVVCEF
# What was measured:
# Experiment in all cases: glycan array binding signal (z-score within array); higher = stronger binding
# Details in all cases: glycan notation: IUPAC condensed, linker removed; mutation: R343A
# [1] = molecular target: Neu5Ac(a2-6)Gal(b1-4)GlcNAc(b1-2)Man(a1-3)[Gal(b1-4)GlcNAc(b1-2)Man(a1-6)]Man(b1-4)GlcNAc(b1-4)GlcNAc
# How it was run: (§1)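 Arrays were curated from the Consortium for Functional Glycomics database, 3228 in total, and kept only where the protein sequence was available. Binding is expressed as a within-array Z-score. This score was averaged across arrays of the same protein sequence at different concentrations or buffers and across linkers, and negative values can be read as non-binding.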
# [2] = molecular target: Neu5Ac(a2-6)Gal(b1-4)GlcNAc(b1-2)Man(a1-3)[GlcNAc(b1-2)Man(a1-6)]Man(b1-4)GlcNAc(b1-4)GlcNAc
# How it was run: as §1
# [3] = molecular target: Neu5Ac(a2-6)Gal(b1-4)GlcNAc(b1-2)Man(a1-3)[GlcNAc(b1-2)Man(b1-4)GlcNAc(b1-2)Man(a1-6)]Man(b1-4)GlcNAc(b1-4)GlcNAc
# How it was run: as §1
# [4] = molecular target: Neu5Ac(a2-6)Gal(b1-4)GlcNAc(b1-2)Man(a1-3)[Neu5Ac(a2-6)Gal(b1-4)GlcNAc(b1-2)Man(a1-6)]Man(b1-4)GlcNAc(b1-4)GlcNAc
# How it was run: as §1
# [5] = molecular target: Neu5Ac(a2-6)Gal(b1-4)GlcNAc(b1-2)Man(a1-6)[Gal(b1-4)GlcNAc(b1-2)Man(a1-3)]Man(b1-4)GlcNAc(b1-4)GlcNAc
# How it was run: as §1
# [6] = molecular target: Neu5Ac(a2-6)Gal(b1-4)GlcNAc(b1-2)Man(a1-6)[GlcNAc(b1-2)Man(a1-3)]Man(b1-4)GlcNAc(b1-4)GlcNAc
# How it was run: as §1
# [7] = molecular target: Neu5Ac(a2-6)Gal(b1-4)GlcNAc(b1-3)Gal(b1-4)GlcNAc
# How it was run: as §1
# [8] = molecular target: Neu5Ac(a2-6)Gal(b1-4)GlcNAc(b1-3)Gal(b1-4)[Fuc(a1-3)]GlcNAc(b1-3)Gal(b1-4)[Fuc(a1-3)]GlcNAc
# How it was run: as §1
# [9] = molecular target: Neu5Ac(a2-6)Gal(b1-4)GlcNAc6S
# How it was run: as §1
# [10] = molecular target: Neu5Ac(a2-6)GalNAc
# How it was run: as §1
# [11] = molecular target: Neu5Ac(a2-6)GalNAc(b1-4)GlcNAc
# How it was run: as §1
# [12] = molecular target: Neu5Ac(a2-8)Neu5Ac
# How it was run: as §1
# [13] = molecular target: Neu5Ac(a2-8)Neu5Ac(a2-3)Gal(b1-4)Glc
# How it was run: as §1
# [14] = molecular target: Neu5Ac(a2-8)Neu5Ac(a2-3)[GalNAc(b1-4)]Gal(b1-4)Glc
# How it was run: as §1
# [15] = molecular target: Neu5Ac(a2-8)Neu5Ac(a2-8)Neu5Ac
# How it was run: as §1
# [16] = molecular target: Neu5Ac(a2-8)Neu5Ac(a2-8)Neu5Ac(a2-3)Gal(b1-4)Glc
# How it was run: as §1
# [17] = molecular target: Neu5Ac(a2-8)Neu5Ac(a2-8)Neu5Ac(a2-3)[GalNAc(b1-4)]Gal(b1-4)Glc
# How it was run: as §1
# [18] = molecular target: Neu5Ac(a2-8)Neu5Ac(a2-8)Neu5Ac(a2-8)Neu5Ac(a2-3)[GalNAc(b1-4)]Gal(b1-4)Glc
# How it was run: as §1
# [19] = molecular target: Neu5Ac(b2-6)Gal(b1-4)GlcNAc
# How it was run: as §1
# [20] = molecular target: Neu5Ac(b2-6)GalNAc
# How it was run: as §1
# [21] = molecular target: Neu5Ac9Ac(a2-6)Gal(b1-4)GlcNAc
# How it was run: as §1
# [22] = molecular target: Neu5Gc(a2-3)Gal(b1-3)GlcNAc
# How it was run: as §1
# [23] = molecular target: Neu5Gc(a2-3)Gal(b1-3)[Fuc(a1-4)]GlcNAc
# How it was run: as §1
# [24] = molecular target: Neu5Gc(a2-3)Gal(b1-4)Glc
# How it was run: as §1
# [25] = molecular target: Neu5Gc(a2-3)Gal(b1-4)GlcNAc
# How it was run: as §1
# [26] = molecular target: Neu5Gc(a2-3)Gal(b1-4)[Fuc(a1-3)]GlcNAc
# How it was run: as §1
# [27] = molecular target: Neu5Gc(a2-6)Gal(b1-4)GlcNAc
# How it was run: as §1
# [28] = molecular target: Neu5Gc(a2-6)GalNAc
# How it was run: as §1
# [29] = molecular target: Neu5Gc(b2-6)Gal(b1-4)GlcNAc
# How it was run: as §1
binder,measurement,setting,value
B1,glycan array binding signal (z-score),[1],-0.124
same,glycan array binding signal (z-score),[2],-0.145
same,glycan array binding signal (z-score),[3],-0.019
same,glycan array binding signal (z-score),[4],-0.213
same,glycan array binding signal (z-score),[5],-0.314
same,glycan array binding signal (z-score),[6],-0.034
same,glycan array binding signal (z-score),[7],-0.219
same,glycan array binding signal (z-score),[8],-0.332
same,glycan array binding signal (z-score),[9],0.52
same,glycan array binding signal (z-score),[10],0.053
same,glycan array binding signal (z-score),[11],-0.271
same,glycan array binding signal (z-score),[12],1.85
same,glycan array binding signal (z-score),[13],0.261
same,glycan array binding signal (z-score),[14],-0.141
same,glycan array binding signal (z-score),[15],-0.205
same,glycan array binding signal (z-score),[16],-0.051
same,glycan array binding signal (z-score),[17],-0.18
same,glycan array binding signal (z-score),[18],0.094
same,glycan array binding signal (z-score),[19],-0.183
same,glycan array binding signal (z-score),[20],-0.346
same,glycan array binding signal (z-score),[21],-0.418
same,glycan array binding signal (z-score),[22],0.033
same,glycan array binding signal (z-score),[23],-0.262
same,glycan array binding signal (z-score),[24],-0.26
same,glycan array binding signal (z-score),[25],-0.168
same,glycan array binding signal (z-score),[26],-0.246
same,glycan array binding signal (z-score),[27],-0.065
same,glycan array binding signal (z-score),[28],-0.406
same,glycan array binding signal (z-score),[29],-0.326
